# Hit rate of the full screen: of about 310,000 compounds, about 14,000 (4.5%) showed an effect of 50% or more. The effect is printed as a negative number. The list shows a part of the results.
# Biological target: human ether-à-go-go-related gene (hERG) potassium channel (human, UniProt Q12809)
# Experiment: primary screen, population patch clamp on CHO cells stably expressing hERG
# 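Also: peak tail current of the secondary pulse compared with the same well before compound.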
# Chain of human ether-à-go-go-related gene (hERG) potassium channel (Q12809 whole entry, looked up): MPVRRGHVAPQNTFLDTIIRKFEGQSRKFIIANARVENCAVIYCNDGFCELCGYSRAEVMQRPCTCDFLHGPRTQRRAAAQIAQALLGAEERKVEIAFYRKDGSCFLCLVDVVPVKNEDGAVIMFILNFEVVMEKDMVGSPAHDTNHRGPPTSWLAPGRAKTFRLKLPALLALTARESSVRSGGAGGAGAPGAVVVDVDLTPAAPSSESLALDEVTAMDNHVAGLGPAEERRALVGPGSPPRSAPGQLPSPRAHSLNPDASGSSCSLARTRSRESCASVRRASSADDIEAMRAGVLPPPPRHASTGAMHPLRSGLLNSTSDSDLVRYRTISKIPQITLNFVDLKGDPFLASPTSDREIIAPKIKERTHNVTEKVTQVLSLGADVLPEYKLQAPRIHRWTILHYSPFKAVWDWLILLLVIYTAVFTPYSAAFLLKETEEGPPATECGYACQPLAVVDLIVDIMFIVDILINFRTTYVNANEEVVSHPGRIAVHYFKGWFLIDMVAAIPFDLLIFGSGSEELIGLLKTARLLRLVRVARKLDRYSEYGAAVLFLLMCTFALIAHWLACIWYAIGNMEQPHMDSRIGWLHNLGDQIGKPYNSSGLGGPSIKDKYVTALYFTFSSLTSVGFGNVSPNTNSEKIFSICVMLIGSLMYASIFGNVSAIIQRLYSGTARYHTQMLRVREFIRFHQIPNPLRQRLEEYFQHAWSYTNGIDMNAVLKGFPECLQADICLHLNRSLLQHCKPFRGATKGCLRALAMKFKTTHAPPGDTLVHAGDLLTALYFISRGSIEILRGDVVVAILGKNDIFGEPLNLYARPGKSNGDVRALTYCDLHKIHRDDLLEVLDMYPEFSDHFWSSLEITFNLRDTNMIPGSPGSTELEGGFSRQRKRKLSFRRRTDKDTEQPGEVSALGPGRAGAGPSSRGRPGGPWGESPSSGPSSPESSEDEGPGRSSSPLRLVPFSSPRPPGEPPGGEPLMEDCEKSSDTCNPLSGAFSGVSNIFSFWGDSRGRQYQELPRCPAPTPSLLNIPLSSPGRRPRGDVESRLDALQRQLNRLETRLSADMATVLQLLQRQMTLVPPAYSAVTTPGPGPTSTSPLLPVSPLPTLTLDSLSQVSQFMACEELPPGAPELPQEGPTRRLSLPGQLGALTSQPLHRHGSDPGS
row,SMILES,"hERG current change (%, negative = inhibition) at 10uM"
1,COc1ccc(CC(=O)Nc2cc(Cl)ccc2C(=O)O)cc1,12.1%
2,COc1ccc(N(C(=O)C2CSC(=O)C2)C(C(=O)NC(C)(C)C)c2ccncc2)cc1 (stereo not drawn),23.8%
3,COc1ccccc1N1CCN(c2nc(C)cc(=O)[nH]2)CC1,11.6%
4,CN(CCCNC(=O)C1CCCN(S(=O)(=O)c2cnc[nH]2)C1)c1ccccc1 (stereo not drawn),16.3%
5,COc1ccc(-n2c(O)c(/C(C)=N/Nc3ccccc3)c(=O)[nH]c2=O)cc1,8.31%
6,O=[N+]([O-])c1cc([N+](=O)[O-])c2nonc2c1Nc1ccccc1O,10.3%
7,Cc1csc(NC(=O)/C=C/c2ccco2)n1,3.38%
8,Cc1ccccc1S(=O)(=O)Cc1ccc(C(=O)NC(C)c2ccc3c(c2)OCCO3)o1 (stereo not drawn),-7.77%
9,COc1nc(C)cc(C)c1S(=O)(=O)c1ccc(Cl)cc1,-6.97%
10,CC(NC(=O)C(=O)N/N=C\c1cccc([N+](=O)[O-])c1)c1ccccc1 (stereo not drawn),11.2%
11,Cc1ccc(-c2nn(CC(=O)Nc3ccc4c(c3)nc3n4CCOC3)c(=O)c3ccccc23)cc1,-17.4%
12,CN1C(=O)C(C)(C)c2cc(S(=O)(=O)N3CCCC3C(=O)NCc3ccccc3Cl)ccc21 (stereo not drawn),-4.71%
13,Cc1sc2nc(SCC(=O)N3CCN(CCO)CC3)n(-c3ccccc3)c(=O)c2c1C,-3.7%
14,O=C(OCCN1C(=O)c2ccccc2C1=O)C1CCN(S(=O)(=O)c2cccs2)CC1,-31.9%
15,CC(C)c1ccc(NC(=S)NC2CC3C=CC2C3)cc1 (stereo not drawn),-29.8%
16,CCC(C)(C)c1nnc(NC(=O)CCC2CCCCC2)s1,5.3%
17,Cc1ccc(NC(=O)N2CCc3ccccc32)cc1C,8.5%
18,O=c1[nH][nH]c(=O)c2cc(N3CCCC3)ccc12,4.02%
19,Nc1c(S(=O)(=O)c2cccc(Cl)c2)c2nc3ccccc3nc2n1CCN1CCOCC1,-5.28%
20,COc1cccc(CN2CC(C(=O)NCCSc3nnnn3C)CCC2=O)c1 (stereo not drawn),18%
21,COc1cccc(/C=N/n2c(COc3ccccc3)n[nH]c2=S)c1O,5.67%
22,CC(C)c1cc(C(=O)O)n(-c2ccccc2)n1,12.1%

row,SMILES,"hERG current change (%, negative = inhibition) at 10uM"
1,O=C(COC(=O)CCCOc1ccc(Cl)cc1Cl)Nc1cccc(Cl)c1,3.62%
2,N#Cc1cn(CCCOc2ccccc2)c2ccccc12,-3.6%
3,COC(=O)c1ccc(Nc2cc(C)nc3nc(C)nn23)cc1,-37.8%
4,COc1ccccc1NC(=S)N(Cc1ccccc1)Cc1cccnc1,-42.9%
5,O=c1[nH]c(CCC2CCCC2)nc2ccccc12,-4.43%
6,COc1ccc(S(=O)(=O)N(CC(=O)NCc2cccnc2)c2ccc(C)cc2)cc1OC,-10%
7,CCOc1ccc(C(=O)Nc2cc(-c3nc4ccccc4[nH]3)ccc2Cl)cc1[N+](=O)[O-],-29.1%
8,CCCN1CC(=O)N2Cc3[nH]c4ccccc4c3C[C@H]2C1=O,14.3%
9,Cc1ccccc1-n1c(C)nnc1SCC(=O)NC1CCCc2ccccc21 (stereo not drawn),-5.87%
10,CSc1nsc(SC)c1C(=O)N1CCN(S(=O)(=O)c2ccc(C)cc2)C1C(C)C (stereo not drawn),-6.82%
11,CCc1cc2c(=O)n3c(nc2s1)-c1[nH]c2ccc(OC)cc2c1CC3,11.5%
12,CCN(Cc1ccccc1)C(=O)Cn1c(=O)n(CCC(=O)N2CCCCC2)c(=O)c2sccc21,0.148%
13,Cc1cc([N+](=O)[O-])nn1CC(=O)N1CCN(Cc2ccccc2)CC1,-8.96%
14,COc1ccccc1OCCNC(=O)C1CC(=O)N(c2ccc3c(c2)OCCO3)C1 (stereo not drawn),-0.264%
15,Cc1c(C(=O)OCC(C)(C)CN(C)C)oc2ccccc12.Cl,-52%
16,Nc1nc(-c2ccccc2Br)cs1,2.46%
17,Cc1cccc(C)c1NC(=O)Cn1c(=O)n(CCCC(=O)NCc2ccco2)c(=O)c2sccc21,2.06%
18,Cc1cc2ccc(C)c(C)c2nc1SCC(=O)c1cccs1,-2.49%
19,O=C1NC(=O)C(=Cc2coc3ccc(O)cc3c2=O)C(=O)N1,6.98%
20,CC(=O)Nc1cccc(NC(=O)c2cccc(OCc3ccccc3)c2)c1,10.6%
21,CC(=O)c1ccc(N2CCN(C(=O)CCN3C(=S)NC(C)(C)CC3C)CC2)cc1 (stereo not drawn),-5.53%
22,CCOC(=O)CNc1nc(Cl)nc(Nc2ccccc2)n1,6.74%

row,SMILES,"hERG current change (%, negative = inhibition) at 10uM"
1,COc1ccc(OCC(=O)NCCNC(=O)c2cccnc2)cc1,20.3%
2,CCOC(=O)c1c(C)[nH]c(C(=O)N/N=C/c2cc([N+](=O)[O-])ccc2O)c1C,33.7%
3,COc1ccc(-c2csc(NC(=O)c3ccccc3C(=O)O)n2)cc1,14.2%
4,O=C1C=C(c2ccc(Cl)c(C(F)(F)F)c2)C[C@@H](c2ccc3c(c2)OCO3)C1,20.3%
5,COc1ccc(CC(=O)NC2CCS(=O)(=O)C2)cc1 (stereo not drawn),10%
6,O=C(Nc1nc2ccccc2s1)C1c2ccccc2Oc2ccccc21,-3.75%
7,Cc1cc(NC(=O)CCC(=O)N(Cc2ccco2)C(C(=O)NCC2CCCO2)c2ccncc2)no1 (stereo not drawn),5.9%
8,Cc1ccc(/C=N/n2cnc3sc(-c4ccccc4)cc3c2=O)o1,-0.659%
9,CSc1nc2nc3c(c(=O)n2[nH]1)CCC3,5.22%
10,CCc1nnc2sc(-c3ccc(NC(=O)c4ccc5c(c4)OCCO5)cc3)nn12,18.1%
11,COc1cc(C(=O)OCC(=O)Nc2cc(-c3cc(C)c(C)cc3C)nn2-c2ccccc2)cc(OC)c1OC,14%
12,Fc1ccccc1/C=N/n1c(C2CCCCC2)n[nH]c1=S,18.1%
13,NS(=O)(=O)c1ccc(NC(=S)Nc2ccc(F)c(F)c2)cc1,25.8%
14,COC(=O)c1ccc(/C=N/NC(=O)C(=O)NCc2ccccc2)cc1,14.1%
15,COc1ccccc1-n1c(C)nc2cc(C(=O)NCc3ccc4c(c3)OCO4)ccc21,-13.1%
16,Cc1ccc(S(=O)(=O)NN=C2C3CC4CC(C3)CC2C4)cc1[N+](=O)[O-],1.11%
17,COc1ccc(NC(=O)c2ccccc2NC(=O)c2ccco2)cc1,18.5%
18,C[C@H](NC(=O)C1CC(=O)N(c2ccc3c(c2)OCO3)C1)C(=O)NCc1ccco1 (stereo partly drawn),14.2%
19,NNC(=O)c1cccc(O)c1,4.72%
20,C[C@@]12CC(=O)NC1N(C(=O)c1cccc(C(F)(F)F)c1)C(c1ccccc1OC(=O)c1cccc(C(F)(F)F)c1)C2 (stereo partly drawn),-0.506%
21,Cc1c(C(=O)NCCCN2CCOCC2)oc2ccc(S(=O)(=O)N3CCOCC3)cc12,18.3%
22,CC1=NN(C(N)=S)C(=O)C1N=Nc1ccc([N+](=O)[O-])cc1 (stereo not drawn),0.571%

row,SMILES,"hERG current change (%, negative = inhibition) at 10uM"
1,CCOC(=O)C1=C(C)N=c2s/c(=C\c3ccc(OC(C)=O)c(OCC)c3)c(=O)n2C1/C=C/c1ccccc1 (stereo not drawn),-1.38%
2,CN1CC(C(=O)c2ccc(F)cc2)C(c2c(F)cccc2Cl)C1 (stereo not drawn),-65.7%
3,COc1cc(/C=C/C(=O)O)cc(S(=O)(=O)Nc2cccc(S(=O)(=O)N3CCOCC3)c2)c1OC,4.12%
4,COc1cccc(C(c2nnnn2Cc2ccc(F)cc2)N2CCC(C(N)=O)CC2)c1OC (stereo not drawn),-24.8%
5,O=S(=O)(NC1=NCCCCC1)c1ccc(Cl)cc1,1.94%
6,CC(NCc1ccc2c(c1)OCO2)c1ccccc1.Cl (stereo not drawn),10.4%
7,NC(=O)CSc1nc2c(sc3ccccc32)c(=O)n1CCCC(=O)NCC1CCCO1 (stereo not drawn),-16.8%
8,C(=N\Nc1nc2ccccc2[nH]1)/C1CCCCC1,-41.7%
9,Cc1cccc(-n2c(C)cc(/C=N/O)c2C)c1,-8.95%
10,CC1=C(C(=O)O)N2C(=O)C(NC(=O)c3ccn(C)n3)C2SC1 (stereo not drawn),13.1%
11,CN(C)S(=O)(=O)N1CCN(CC(=O)Nc2cc(Cl)ccc2Cl)CC1,-50.8%
12,CN(C(=O)COC(=O)c1ccc(Br)o1)c1c(N)n(Cc2ccccc2)c(=O)[nH]c1=O,4.85%
13,NS(=O)(=O)c1ccc(NC(=S)NNC(=O)c2cccs2)cc1,15.7%
14,O=C(NCCN1C(=O)CSC1=O)C1CC(=O)N(c2ccccc2)C1 (stereo not drawn),0.301%
15,O=C(Nc1cccc(F)c1)/C(=C\c1ccco1)NC(=O)c1ccco1,3.93%
16,O=C(c1cc(C(=O)N2CCCC2)cc([N+](=O)[O-])c1)N1CCCC1,17.5%
17,CCOC(=O)Nc1ccccc1C(=O)Nc1cc(C)cc(C)c1,28.9%
18,COc1cccc(NC(=O)CN(C)C(=O)CCSc2ccc(C)cc2)c1,-34%
19,Cc1cc(C)c2c(N)c(C(=O)NCc3ccco3)sc2n1,-7.58%
20,COC(=O)c1cn(CC(=O)N2CCCCCC2)c2ccccc12,-40.1%
21,Cc1cccc(/N=C/c2c(C)[nH]n(-c3ccccc3)c2=O)n1,8.98%

# Source: article PMC4336329 (PLoS ONE, 2015)
